# Test results published in article PMC4336329 (PLoS ONE, 2015).
# Out of some 310,000 compounds screened, about 14,000 (4.5%) showed an effect of 50% or more. The effect is printed as a negative number. Some of the results follow.
# Target: human ether-à-go-go-related gene (hERG) potassium channel (human, UniProt Q12809)
# Test: primary screen, population patch clamp on CHO cells stably expressing hERG
# 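Note: peak tail current of the secondary pulse compared with the same well before compound.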
# Chain of human ether-à-go-go-related gene (hERG) potassium channel (Q12809 whole entry, looked up): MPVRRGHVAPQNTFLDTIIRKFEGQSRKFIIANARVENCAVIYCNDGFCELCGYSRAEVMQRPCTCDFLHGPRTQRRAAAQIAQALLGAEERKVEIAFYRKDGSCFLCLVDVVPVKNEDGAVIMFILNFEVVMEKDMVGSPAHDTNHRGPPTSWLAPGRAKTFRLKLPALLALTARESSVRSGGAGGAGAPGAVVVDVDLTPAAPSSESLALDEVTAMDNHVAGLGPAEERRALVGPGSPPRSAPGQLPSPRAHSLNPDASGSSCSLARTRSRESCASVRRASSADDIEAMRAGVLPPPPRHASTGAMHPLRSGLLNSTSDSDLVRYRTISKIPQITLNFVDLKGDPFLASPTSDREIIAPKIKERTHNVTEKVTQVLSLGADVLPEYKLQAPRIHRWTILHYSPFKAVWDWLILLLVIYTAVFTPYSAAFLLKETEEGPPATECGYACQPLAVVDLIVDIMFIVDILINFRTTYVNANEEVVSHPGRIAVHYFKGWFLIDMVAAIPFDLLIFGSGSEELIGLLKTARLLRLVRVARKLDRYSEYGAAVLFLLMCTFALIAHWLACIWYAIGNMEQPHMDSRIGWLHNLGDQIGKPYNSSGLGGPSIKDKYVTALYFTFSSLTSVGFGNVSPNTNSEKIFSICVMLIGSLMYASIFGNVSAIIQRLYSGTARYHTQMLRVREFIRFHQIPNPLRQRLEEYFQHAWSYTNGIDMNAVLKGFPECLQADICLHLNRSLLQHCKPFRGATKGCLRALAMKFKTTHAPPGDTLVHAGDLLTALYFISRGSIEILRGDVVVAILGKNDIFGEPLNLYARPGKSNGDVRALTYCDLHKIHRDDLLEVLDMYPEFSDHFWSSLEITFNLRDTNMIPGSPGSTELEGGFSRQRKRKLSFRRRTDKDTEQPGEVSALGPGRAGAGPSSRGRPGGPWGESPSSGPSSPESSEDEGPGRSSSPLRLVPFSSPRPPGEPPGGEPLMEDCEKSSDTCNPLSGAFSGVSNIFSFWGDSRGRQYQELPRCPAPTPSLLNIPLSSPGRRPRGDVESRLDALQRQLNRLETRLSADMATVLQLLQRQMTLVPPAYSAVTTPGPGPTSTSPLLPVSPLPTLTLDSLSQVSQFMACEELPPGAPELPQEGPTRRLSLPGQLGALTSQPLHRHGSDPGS
row,SMILES,"hERG current change (%, negative = inhibition) at 10uM [%]"
1,CC(=O)c1ccc(NC(=O)COC(=O)c2ccccc2N=Nc2ccc(N(C)C)cc2)cc1,4.13
2,COc1cccc(CN2CC(O)=C(c3nc(-c4ccc(Cl)cc4)cs3)C2=N)c1,-1.11
3,Nc1ccccc1C(=O)NCCN1CCNC1=O,19.9
4,COc1ccccc1N1CCN(C2CCCN(S(=O)(=O)c3cccc(Cl)c3)C2)CC1 (centres unmarked),-40.2
5,O=C(c1ccsc1)N1CCCC(N2CCOCC2)C1 (centres unmarked),15.7
6,COc1ccc(C)cc1N(C(=O)c1ccccc1)c1nc2ccccc2s1,2.93
7,CCOc1ccc(C(=O)Oc2cc(C)[nH]c(=O)c2[N+](=O)[O-])cc1OCC,22.6
8,Cc1cc(C)cc(NC(=O)Cn2nnc(C(=O)NCc3ccc4c(c3)OCO4)c2N)c1,15.7
9,O=C(Cn1c(=O)oc2cc(S(=O)(=O)N3CCCCCC3)ccc21)NC1CCCCCCC1,-1.06
10,Cc1cc(N2CCC(C(=O)N3CCN(c4cccc(C)c4C)CC3)CC2)n2ncnc2n1,-68.7
11,c1ccc2c(-c3cn4ccccc4n3)c[nH]c2c1,-5.76
12,CCc1c(C)sc(NC(=O)Cn2nc(C)c([N+](=O)[O-])c2C)c1C(N)=O,15.5
13,CC1CCCCN1C(=O)CN1C(=O)c2ccccc2S1(=O)=O (centres unmarked),3.43
14,Cc1ccc(Cn2c(=O)sc3ccccc3c2=O)cc1,13.5
15,NNC(=O)c1c(O)c2cccc3c2n(c1=O)CCC3,22.4
16,O=C(Nc1cccc(O)c1)c1cccc(C(=O)Nc2cccc(O)c2)c1,18.7
17,COc1ccc(-c2cc(C(F)(F)F)nc(SCC(=O)NCc3cnn(C)c3C)n2)cc1OC,-2.05
18,O=C(CCn1c(=O)oc2ccccc21)Nc1cccc([N+](=O)[O-])c1,6.68
19,Cc1ccn2cc(-c3cnoc3C)nc2c1,6.49
20,Cc1cc(O)c(NC(=O)c2ccc(C)c([N+](=O)[O-])c2)cc1C,9.3
21,Cc1ccc(N(CC(=O)Nc2ccc(F)cc2)S(=O)(=O)N2CCCC2)cc1,-27.1
22,Fc1cc(Br)cc(F)c1NC(=S)N1CCOCC1,6.42

row,SMILES,"hERG current change (%, negative = inhibition) at 10uM [%]"
1,COC(=O)c1cc(Br)ccc1N(Cc1cc(OC)cc(OC)c1)S(C)(=O)=O,-9.66
2,O=C(NNc1nc2c(F)cccc2s1)C1=COCCO1,20
3,Nc1ccccc1C(=O)N(Cc1ccccc1)Cc1ccccc1,3.55
4,CN(NC(=O)c1ccccc1)c1nc2ccccc2nc1C(F)(F)F,-3.6
5,Cc1ccc2[nH]c(C(=O)Nc3ccc(F)cc3)cc2c1,13
6,O=S(=O)(NN1CCOCC1)c1cc(Cl)cc(Cl)c1O,14.1
7,Cc1cc(C(=O)CCC(=O)N2CCN(c3ccccc3O)CC2)c(C)s1,-1.8
8,O=C(Nc1nnc(Cc2ccccc2)s1)C1CCC1,10.9
9,Cc1nn(C)cc1CN(C)C(=O)c1cc(-c2ccccc2)nc2ccc(Br)cc12,-4
10,COc1ccc([C@H]2CC(=O)C=C(c3cc4ccccc4s3)C2)cc1,-1.66
11,COc1ccc(/C=N/NC(=O)Nc2ccc3nsnc3c2)c(OC)c1,5.51
12,Nc1ccc2nc(SCc3cccc(F)c3)sc2c1,10.5
13,CCc1ccccc1NC(=O)C1=CC(c2ccc(OC)c(OC)c2)=NS(=O)(=O)N1C,15.2
14,CN(Cc1cnccn1)C(=O)C1CCC(=O)N(CCc2ccc(Cl)cc2)C1 (centres unmarked),-67.9
15,COc1ccc(C(CNC(=O)c2cccc(S(=O)(=O)N3CCCCC3)c2)N2CCCC2)cc1 (centres unmarked),-43.8
16,CN(CC(=O)NCc1ccco1)S(=O)(=O)c1ccc2c(c1)c(=O)n(C)c(=O)n2C,-11.7
17,COC(=O)c1ccc2nc(C)cc(Nc3ccccc3C)c2c1.Cl,-47.5
18,CCc1noc(C)c1C(=O)N(C)CC(=O)Nc1ccc(F)c(F)c1F,17.4
19,COc1ccc(OC)c(NC(=O)COC(=O)C2CCN(C(=O)c3ccc(Cl)cc3)CC2)c1,-71.1
20,COc1ccccc1CCC(=O)NNC(=O)c1ccc(Br)cc1,11.2
21,Cc1cccc(NC(=O)c2sc(NC(=O)COc3ccccc3)c(C#N)c2C)c1C,14.6
22,FC(F)(F)c1ccc(/C=N/NC(=S)NC2CCCCC2)cc1,-13.6

row,SMILES,"hERG current change (%, negative = inhibition) at 10uM [%]"
1,CCn1cc(C(=O)O)c(=O)c2cnc(N3CCN(C(=S)NC(=O)c4ccc(Cl)cc4)CC3)nc21,-1.52
2,[C-]#[N+][C@H](O[C@@H]1O[C@H](CO)[C@@H](O)[C@H](O)[C@H]1O)c1ccccc1,-7.77
3,CC(=O)OCC(=O)NCC(=O)c1c[nH]c2ccccc12,16.9
4,O=C([O-])c1ccc(-n2nc(C(F)(F)F)c3c2CCCC3)cc1.[K+],12.3
5,O=C(Nc1ccccc1C(=O)OCC(=O)c1c[nH]c2ccccc12)c1ccco1,-5.98
6,Cn1ccnc1SCC(=O)Nc1ccc(Br)cc1C(F)(F)F,8.6
7,CCOC(=O)C(C#N)C(Cc1ccccc1)c1ccco1 (centres unmarked),-10
8,C=CCNC(=S)NNC(=O)c1csc(C)c1C,15.7
9,O=S(=O)(Cc1ccccc1)/C1=C(\N2CCOCC2)CCCCCC1,-11
10,C[C@H](CO)NC(=O)[C@H](C)[C@@H]1C[C@@]1(C)[C@@H](NC(=O)OCc1ccccc1)c1ccccc1,-19.1
11,CCCN1CCCc2cc(CN)ccc21.O=C(O)C(=O)O,-12.9
12,Cn1c2ccccc2c2c(C(=O)NCCCN3CCCC3=O)cn(C3CCCCC3)c(=O)c21,1.44
13,COc1ccc(NS(=O)(=O)c2cc(NC(=O)c3cccc(OCc4c(C)noc4C)c3)ccc2OC)cc1,12.9
14,CCN1C(=O)[C@H]2[C@@H](c3ccc(C)cc3)N3C(=O)N(c4cccc(Br)c4)C(=O)[C@@]3(Cc3ccccc3)[C@H]2C1=O,10.9
15,O=C(O)c1ccc(Cn2cc(C(F)(F)F)ccc2=O)cc1,21.8
16,CCC(C)N1CCN(C(=O)C2CCN(S(=O)(=O)c3c(C)noc3/C=C/c3ccco3)CC2)CC1 (centres unmarked),-12.9
17,CN(C(=O)CSc1nnc2ccccn12)C1CCS(=O)(=O)C1 (centres unmarked),10.4
18,CCOc1ccc(-c2ncncc2-c2ccc(OC)c(OC)c2)c(O)c1,-20.7
19,COCCCNc1nc2c(c(=O)n(C)c(=O)n2C)n1Cc1cccc(OC)c1,8.96
20,Cc1ccccc1N1C(=O)NC(=O)/C(=C\c2cnn(-c3ccccc3)c2)C1=O,10.3
21,COc1ccc(CCN2CC(C(=O)N(C)CC(=O)Nc3cccc(F)c3)CC2=O)cc1OC (centres unmarked),12.7
22,CCNS(=O)(=O)c1ccc(OCCNS(C)(=O)=O)cc1,2

row,SMILES,"hERG current change (%, negative = inhibition) at 10uM [%]"
1,CNCc1ccc(OCc2ccccc2)c(OC)c1,0.71
2,C=C[C@@]12CN(C)[C@H]3[C@H]1[C@@]1(C(=O)Nc4ccccc41)C1CC2[C@@H]3CO1,13
3,O=C(CCn1[nH]c(=O)c2ccccc2c1=O)NCCO,9.55
4,Cc1ccc(S(=O)(=O)N2CCN(CC(=O)N/N=C/C=C/c3ccccc3)CC2)cc1,-73.8
5,C/C(CC(=O)Nc1cccnc1)=N\NC(=O)C(=O)NC(C)C,17.6
6,S=c1[nH]nc(-c2ccco2)n1/N=C/c1ccccc1Cl,14.4
7,NS(=O)(=O)c1ccc(NC(=O)CCC2CCCCC2)cc1,5.03
8,COC(=O)C1CN(C(=O)C(C)Oc2ccc(F)cc2)c2ccccc2O1 (centres unmarked),3.64
9,Cc1nc(CCNC(=O)CC2C(=O)NCCN2Cc2ccc(F)cc2)sc1C (centres unmarked),12.3
10,Cc1cc(C)cc(OCC(=O)NNC(=O)CN2C(=O)c3ccccc3C2=O)c1,9.45
11,O=C(C1CC(=O)N(c2ccc(F)c(Cl)c2)C1)N1CCC2(CC1)OCCO2 (centres unmarked),0.311
12,O=C1C2C3C=CC(C3)C2C(=O)N1CCc1ccccc1 (centres unmarked),6.21
13,Cc1ccc(C(=O)C2=C(O)C(=O)N(Cc3cccnc3)C2c2cccc(Oc3ccccc3)c2)o1 (centres unmarked),13
14,COc1ccc(-n2nc3c(N4CCC(C(=O)NCc5ccco5)CC4)nnc(C)c3c2C)cc1,5.12
15,COCCn1nnnc1C(c1ccccc1)N1CCN(C)CC1.Cl (centres unmarked),8.75
16,Cc1cc(=O)[nH]c2c1c(-c1ccccc1)nn2C,2.46
17,Cc1cc(NC(=O)C2CC(c3ccc(Cl)cc3)=NO2)no1 (centres unmarked),-4.52
18,CSc1ccc(S(=O)(=O)N2CCN(Cc3ccc4c(c3)OCO4)CC2)cc1,-9.34
19,CC(C)(C)CC(=O)Nc1nnc(SCC(=O)Nc2ccccc2F)s1,15.7
20,Cc1cccc(NC(=O)CC(=O)Nc2cccc(C)c2)c1,10.7
